Test results: PubChem BioAssay (NCI)
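Test compounds were applied to cells in 96-well plates for 48 hours at 5 doses. Abbreviation: GI50, concentration required for 50% inhibition of growth.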 A number of entries come with more than one value. This list holds those alone. There may be further records. A record mostly stands for its own series of concentrations, not given here; a value can be the end of its range.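 TGI: concentration producing complete growth inhibition.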

Tests used:
Experiment in all cases: NCI anticancer screen, dose series, 48 h
HOP-92 NSCLC = tested on: HOP-92 NSCLC
CCRF-CEM leukemia = tested on: CCRF-CEM leukemia
MCF7 breast = tested on: MCF7 breast
MALME-3M melanoma = tested on: MALME-3M melanoma
TK-10 renal = tested on: TK-10 renal
PC-3 prostate = tested on: PC-3 prostate
NCI/ADR-RES ovarian = tested on: NCI/ADR-RES ovarian
MDA-MB-231 breast = tested on: MDA-MB-231 breast
HT29 colon = tested on: HT29 colon
SF-268 CNS = tested on: SF-268 CNS
NCI-H460 lung = tested on: NCI-H460 lung
SK-OV-3 ovarian = tested on: SK-OV-3 ovarian
SF-539 CNS = tested on: SF-539 CNS
SK-MEL-2 melanoma = tested on: SK-MEL-2 melanoma
HS 578T breast = tested on: HS 578T breast
786-0 renal = tested on: 786-0 renal
SW-620 colon = tested on: SW-620 colon
NCI-H522 lung = tested on: NCI-H522 lung
HL-60(TB) leukemia = tested on: HL-60(TB) leukemia
NCI-H226 lung = tested on: NCI-H226 lung
OVCAR-5 ovarian = tested on: OVCAR-5 ovarian
RPMI-8226 leukemia = tested on: RPMI-8226 leukemia
UACC-62 melanoma = tested on: UACC-62 melanoma
K-562 leukemia = tested on: K-562 leukemia
RXF 393 renal = tested on: RXF 393 renal
U251 CNS = tested on: U251 CNS
M14 melanoma = tested on: M14 melanoma
SF-295 CNS = tested on: SF-295 CNS
UO-31 renal = tested on: UO-31 renal
COLO 205 colon = tested on: COLO 205 colon
HCC-2998 colon = tested on: HCC-2998 colon
HOP-62 NSCLC = tested on: HOP-62 NSCLC
SR leukemia = tested on: SR leukemia
OVCAR-4 ovarian = tested on: OVCAR-4 ovarian
NCI-H23 lung = tested on: NCI-H23 lung
CAKI-1 renal = tested on: CAKI-1 renal
DU-145 prostate = tested on: DU-145 prostate
A549 NSCLC = tested on: A549 NSCLC

## CO[C@H]1C[C@@H]2CC[C@@H](C)[C@@](O)(O2)C(=O)C(=O)N2CCCC[C@H]2C(=O)O[C@H]([C@H](C)C[C@@H]2CC[C@@H](OC(=O)C(C)(CO)CO)[C@H](OC)C2)CC(=O)[C@H](C)/C=C(\C)[C@@H](O)[C@@H](OC)C(=O)[C@H](C)C[C@H](C)/C=C/C=C/C=C/1C
HOP-92 NSCLC
  TGI: 90.9 nM and 11.3 µM
CCRF-CEM leukemia
  TGI: 4.63 nM and > 100 µM
MCF7 breast
  TGI: 19.4 nM and > 100 µM
MALME-3M melanoma
  TGI: 21.4 nM and > 58.1 µM
TK-10 renal
  TGI: 19.9 nM and > 100 µM

## Cc1cc2c(cc1C)[n+](=O)c(C(=O)c1cccs1)c(C(F)(F)F)n2[O-]
PC-3 prostate
  TGI: 2.64 µM and > 100 µM
TK-10 renal
  TGI: 4.79 µM and 69.4 µM

## COC1(OC)C[C@H](C)[C@@]23O[C@]24c2cc(O)c5c(c2N[C@H]3C#C/C=C\C#C[C@]14O)C(=O)c1ccccc1C5=O
NCI/ADR-RES ovarian
  TGI: 15.3 nM and 15.8 µM
MDA-MB-231 breast
  TGI: 67.1 nM and 1.58 µM
HT29 colon
  TGI: 353 nM and 7.97 µM
SF-268 CNS
  TGI: 27.6 nM and 3.84 µM
MALME-3M melanoma
  TGI: < 1 nM and 181 nM
NCI-H460 lung
  TGI: < 1 nM and 382 nM

## Cc1c(N)nc([C@H](CC(N)=O)NC[C@H](N)C(N)=O)nc1C(=O)N[C@H](C(=O)N[C@H](C)[C@@H](O)[C@H](C)C(=O)N[C@H](C(=O)NCCc1nc(-c2nc(C(=O)NCCC[S+](C)C)cs2)cs1)[C@@H](C)O)C(OC1OC(CO)C(O)C(O)C1OC1OC(CO)C(O)C(OC(N)=O)C1O)c1cnc[nH]1 (stereo not given in full)
SK-OV-3 ovarian
  TGI: 22.4 µM, 25 µM, 29 µM, > 100 µM
SF-539 CNS
  TGI: 524 nM, 183 nM, 1.23 µM, 1.1 µM
HOP-92 NSCLC
  TGI: 3 µM, 454 nM, 2.77 µM, 8.91 µM
SK-MEL-2 melanoma
  TGI: 21.3 µM, > 25 µM, > 29 µM, > 100 µM
HS 578T breast
  GI50: 112 nM [1 test] and 942 nM [mean of 2 tests] and 1.89 µM [mean of 33 tests]
  TGI: 866 nM [1 test] and 14 µM [mean of 2 tests] and 18 µM [mean of 33 tests]
786-0 renal
  TGI: 17.1, 4.23, 6.03, 37.1 µM
SW-620 colon
  TGI: 23.7 µM, 25 µM, 29 µM, > 100 µM
NCI-H522 lung
  TGI: 7.58, 5.11, 8.55, 17 µM
HL-60(TB) leukemia
  TGI: 22.8, 12.2, 6.33, 67.9 µM
NCI-H226 lung
  TGI: 3.02, 4.39, 10.7, 22.8 µM
OVCAR-5 ovarian
  TGI: 16.7 µM, 25 µM, 16.3 µM, > 100 µM
RPMI-8226 leukemia
  TGI: 23.9 µM, > 25 µM, > 29 µM, > 100 µM
UACC-62 melanoma
  TGI: 5.77, 4.64, 1.57, 19.2 µM
K-562 leukemia
  TGI: > 25 µM, 29 µM, 54.6 µM [1 test] and 21.8 µM [mean of 119 tests]
SF-268 CNS
  TGI: 20, 8.45, 29, 43.4 µM
RXF 393 renal
  TGI: 3.37 µM, 354 nM, 1.15 µM, 4.31 µM
U251 CNS
  TGI: 12.5 µM, 25 µM, 29 µM, > 100 µM
M14 melanoma
  TGI: 16.8 µM, 18.8 µM, 17 µM, > 100 µM
NCI-H460 lung
  GI50: 18.5 nM and 389 nM
SF-295 CNS
  TGI: 3.93, 1.41, 3, 10.3 µM
UO-31 renal
  TGI: 7.12, 1.91, 7.08, 4.78 µM
COLO 205 colon
  TGI: 21.9, 25, 29, 66.2 µM
HCC-2998 colon
  TGI: 20.4 µM, 25 µM, 29 µM, > 100 µM
HOP-62 NSCLC
  TGI: 2.12 µM, 1.25 µM, 1.65 µM, > 100 µM
SR leukemia
  TGI: 2.08 µM and 157 nM
OVCAR-4 ovarian
  TGI: 20.3, 10.4, 29, 56.5 µM
NCI-H23 lung
  TGI: 8.63, 7.23, 4.03, 18.4 µM
TK-10 renal
  TGI: 23.7 µM, 5.17 µM, > 100 µM
CAKI-1 renal
  TGI: 1.69, 25, 29, 36.8 µM
DU-145 prostate
  GI50: 341 nM [mean of 2 tests] and 4.42 µM [mean of 33 tests]
A549 NSCLC
  TGI: 21.5 µM, 25 µM, 29 µM, > 100 µM
